Laboratory results from the RNAGym collection of RNA variant scans (doi:10.7554/elife.90254).
Read counts are not given, so values of variants with three or more changes are uncertain.

B1: LINE1-full (parent)
chain: UACGUAGGUGGUUUUCCCCUGAUAGUGCUAAGGGGGCCUGGAAGUUUGGACUGGGCAGAGCUCAACACAGCGUGGCAAAGUGGCUGUGGCUAGACUGCCUCUCUGGAUUCCUCGUCACUCAGCAGGGCAUCUCUGAGAGAAAUGCC

Variants of: B1
Test: self-cleavage, relative activity (ratio to wild type); higher = more cleavage; in vitro, sequencing; the parent is a self-cleaving ribozyme

Question: Which self-cleavage does the source give for G74A A78G A141G U143C here?
Answer: Its self-cleavage is 1.21.

Question: Which self-cleavage does the source give for G74A A78G U104A here?
Answer: The self-cleavage was 1.12.

Question: With G74A A78U U108C as the variant, how does the self-cleavage read?
Answer: The self-cleavage was 2.78.

Question: With G74A A94G U130C as the variant, how does the self-cleavage read?
Answer: The self-cleavage was 0.12.

Question: Which self-cleavage does the source give for G74A G88A A117G A129G here?
Answer: The self-cleavage was 0.03.

Question: With G74A G97A U100C U119C as the variant, how does the self-cleavage read?
Answer: Its self-cleavage is 0.2.

Question: Which self-cleavage does the source give for G74A U87A U104C here?
Answer: The self-cleavage was 0.05.

Question: For G74A U87C U104C, which self-cleavage is on record?
Answer: Its self-cleavage is 0.21.

Question: Which self-cleavage does the source give for G74U A140G U143C here?
Answer: The self-cleavage was 0.63.

Question: With G75A A78G C101G U108C as the variant, how does the self-cleavage read?
Answer: The self-cleavage was 0.89.

Question: Which self-cleavage does the source give for G75A A78U U104C A107G G114U A141G here?
Answer: The self-cleavage was 2.93.

Question: With G75A A79G U104A as the variant, how does the self-cleavage read?
Answer: Its self-cleavage is 0.77.

Question: With G75A A94U U96C as the variant, how does the self-cleavage read?
Answer: Its self-cleavage is 0.06.

Question: Which self-cleavage does the source give for G75C C99U A124G here?
Answer: Its self-cleavage is 0.1.

Question: Which self-cleavage does the source give for G75C U100A A142G here?
Answer: Its self-cleavage is 0.31.

Question: For G75C U119A A136G, which self-cleavage is on record?
Answer: The self-cleavage was 0.65.

Question: For C76A U104A U108C U115C U132C U134C A140G, which self-cleavage is on record?
Answer: The self-cleavage was 2.42.

Question: For C76U A79G U112A, which self-cleavage is on record?
Answer: The self-cleavage was 1.84.

Question: For C76U C128A A129G, which self-cleavage is on record?
Answer: Its self-cleavage is 1.35.

Question: With A77C A79G U96C U130C as the variant, how does the self-cleavage read?
Answer: The self-cleavage was 0.88.

Question: Which self-cleavage does the source give for A77C A79U U108C here?
Answer: Its self-cleavage is 0.42.

Question: For A77C A129G G137U, which self-cleavage is on record?
Answer: Its self-cleavage is 2.42.

Question: With A77C A140G A141G as the variant, how does the self-cleavage read?
Answer: Its self-cleavage is 1.35.

Question: With A77C C84U U87G as the variant, how does the self-cleavage read?
Answer: Its self-cleavage is 0.03.

Question: For A77G A78G A92G, which self-cleavage is on record?
Answer: The self-cleavage was 0.

Question: For A77G A78G U134C, which self-cleavage is on record?
Answer: The self-cleavage was 2.91.

Question: With A77G A79G A121U A142G as the variant, how does the self-cleavage read?
Answer: Its self-cleavage is 0.43.

Question: Which self-cleavage does the source give for A77G A79G G82A here?
Answer: The self-cleavage was 1.5.

Question: With A77G A79G U96A C113U as the variant, how does the self-cleavage read?
Answer: Its self-cleavage is 0.1.

Question: With A77G A79G U96C C98A U115A G127A as the variant, how does the self-cleavage read?
Answer: Its self-cleavage is 0.04.

Question: With A77G A94G G127U as the variant, how does the self-cleavage read?
Answer: Its self-cleavage is 0.39.

Question: For A77G A117G A140G, which self-cleavage is on record?
Answer: Its self-cleavage is 2.83.

Question: With A77G A129U U134C as the variant, how does the self-cleavage read?
Answer: The self-cleavage was 0.88.

Question: Which self-cleavage does the source give for A77G C101G A124U here?
Answer: The self-cleavage was 1.99.

Question: Which self-cleavage does the source give for A77G C118U A124G here?
Answer: The self-cleavage was 1.26.

Question: With A77G G83C U108C as the variant, how does the self-cleavage read?
Answer: The self-cleavage was 2.66.

Question: For A77G U81A U96A, which self-cleavage is on record?
Answer: The self-cleavage was 0.

Question: With A77G U81C U112C as the variant, how does the self-cleavage read?
Answer: Its self-cleavage is 1.84.

Question: With A77G U81C U115C U132A C146U as the variant, how does the self-cleavage read?
Answer: Its self-cleavage is 0.

Question: Which self-cleavage does the source give for A77G U85A U119A here?
Answer: The self-cleavage was 0.07.

Question: With A77G U87A A121U as the variant, how does the self-cleavage read?
Answer: The self-cleavage was 0.09.

Question: With A77G U87A U115C as the variant, how does the self-cleavage read?
Answer: The self-cleavage was 0.11.

Question: With A77G U91C U134C as the variant, how does the self-cleavage read?
Answer: The self-cleavage was 1.47.

Question: For A77G U96A G114U, which self-cleavage is on record?
Answer: The self-cleavage was 0.09.

Question: For A77G U102C G122C, which self-cleavage is on record?
Answer: Its self-cleavage is 2.9.

Question: Which self-cleavage does the source give for A77G U102C U132C A142G here?
Answer: Its self-cleavage is 0.88.

Question: For A77G U104A U115C, which self-cleavage is on record?
Answer: The self-cleavage was 1.31.

Question: With A77G U104G U130C as the variant, how does the self-cleavage read?
Answer: Its self-cleavage is 1.72.

Question: With A77G U108G U115A as the variant, how does the self-cleavage read?
Answer: The self-cleavage was 2.76.

Question: For A77G U109A A117G, which self-cleavage is on record?
Answer: The self-cleavage was 1.84.

Question: Which self-cleavage does the source give for A77G U112C A138G here?
Answer: The self-cleavage was 2.37.

Question: With A77G U115A A138G as the variant, how does the self-cleavage read?
Answer: The self-cleavage was 2.49.

Question: For A77G U115A G139U, which self-cleavage is on record?
Answer: The self-cleavage was 2.06.

Question: Which self-cleavage does the source give for A77G U115C A124U A129U here?
Answer: The self-cleavage was 2.23.

Question: With A77G U119C A141G as the variant, how does the self-cleavage read?
Answer: Its self-cleavage is 1.1.

Question: For A77G U132C A140G, which self-cleavage is on record?
Answer: The self-cleavage was 2.79.

Question: For A77G U132C A142U, which self-cleavage is on record?
Answer: The self-cleavage was 1.96.

Question: For A77U A78C U115C, which self-cleavage is on record?
Answer: The self-cleavage was 1.45.

Question: Which self-cleavage does the source give for A77U A78G A142G U143C here?
Answer: The self-cleavage was 2.14.

Question: For A77U A79G A107G, which self-cleavage is on record?
Answer: The self-cleavage was 1.44.

Question: With A77U A79U A124G as the variant, how does the self-cleavage read?
Answer: Its self-cleavage is 0.84.

Question: For A77U A92U C99U U112C, which self-cleavage is on record?
Answer: The self-cleavage was 0.16.

Question: With A77U A117G A142G as the variant, how does the self-cleavage read?
Answer: Its self-cleavage is 1.18.

Question: With A77U A124G U143A as the variant, how does the self-cleavage read?
Answer: The self-cleavage was 0.5.

Question: Which self-cleavage does the source give for A77U A129U A140G here?
Answer: The self-cleavage was 0.79.

Question: For A77U A140G U143C, which self-cleavage is on record?
Answer: The self-cleavage was 0.65.

Question: Which self-cleavage does the source give for A77U C90U A124G U134A here?
Answer: The self-cleavage was 0.03.

Question: Which self-cleavage does the source give for A77U C118U A142G here?
Answer: Its self-cleavage is 1.26.

Question: Which self-cleavage does the source give for A77U C118U U132C here?
Answer: Its self-cleavage is 1.11.

Question: With A77U G83A C98U A141G as the variant, how does the self-cleavage read?
Answer: Its self-cleavage is 0.17.

Question: With A77U G83A C131A A142U as the variant, how does the self-cleavage read?
Answer: The self-cleavage was 1.22.

Question: For A77U G86A A117U, which self-cleavage is on record?
Answer: Its self-cleavage is 0.03.

Question: For A77U G88A A124G, which self-cleavage is on record?
Answer: The self-cleavage was 0.03.

Question: For A77U G97A A129G A136U, which self-cleavage is on record?
Answer: Its self-cleavage is 0.09.

Question: For A77U G114A A124U, which self-cleavage is on record?
Answer: The self-cleavage was 1.36.

Question: With A77U G114A G126C as the variant, how does the self-cleavage read?
Answer: Its self-cleavage is 2.1.

Question: For A77U U81A A129U, which self-cleavage is on record?
Answer: Its self-cleavage is 1.96.

Question: For A77U U81C U87C, which self-cleavage is on record?
Answer: The self-cleavage was 0.18.

Question: Which self-cleavage does the source give for A77U U85A A124G A136G here?
Answer: Its self-cleavage is 0.05.

Question: Which self-cleavage does the source give for A77U U87C A129G here?
Answer: Its self-cleavage is 0.28.

Question: For A77U U87C U91C U109A U112G U115A, which self-cleavage is on record?
Answer: Its self-cleavage is 0.

Question: For A77U U87C U100C, which self-cleavage is on record?
Answer: Its self-cleavage is 0.19.

Question: For A77U U96C A121U A124G U143A, which self-cleavage is on record?
Answer: The self-cleavage was 0.04.
